Assay results from the supplement of paper PMC11417369.
± gives the standard deviation of the averaged measurements. The list shows a part of the results.

System: PfAP2-EXP AP2 domain (GST-tagged)
Experiment: gcPBM binding intensity (ln(normalized median fluorescence intensity)); higher = stronger DNA binding
Method in brief: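 The highest Masliner-normalised natural-log median intensity across replicate spots of either probe orientation is reported as binding intensity. GST-tagged P. falciparum DNA-binding domains expressed in E. coli were applied for 1 h to an Agilent 4 × 180k array of primer-extended double-stranded 36-bp intergenic genomic probes plus negative controls, and bound protein was detected with Alexa488 anti-GST antibody and scanned at 488 nm.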

Row | Sequence | gcPBM binding intensity (ln)
1 | TAAAAAATTATATATTGTACGAATGCATAAAAAAAA [XGTACX_site4606] | 8.95 ± 0.37
2 | TATGAAAATAAAATATGTACATATTTTAAATGTTAT [XGTACX_site7352] | 8.59 ± 0.31
3 | CAAATGTGTTCTTCAGGTACAGATACACATTTATGA [XGTACX_site2664] | 8.34 ± 0.35
4 | CACCATGTTAACAAAGCATGCATCTCTATAGTTTTA [TGCATGCA_site97] | 9.06 ± 0.54
5 | AAACAAAAAATATATACACACTAAACATAAAAAAAA [CACACA_site4185] | 8.63 ± 0.41
6 | AGTGACACCAAAGGGGTGCAATGAAATTAAAAATAT | 8.84 ± 0.21
7 | TTTATTCATTTCTAAAAATATTAAAATAGAATGAAT [CACACA_negctrl_site325] | 8.3 ± 0.52
8 | TAAAAAAAAATAAATGGTACACAATTAAATGTTTAT [XGTACX_site5255] | 8.47 ± 0.28
9 | ATATACTATATATAATGTACATATATATTATTATGC [XGTACX_site2957] | 8.52 ± 0.37
10 | ATAAGAAAATCAAAAAGTACTTTTTACAAAGATAAA [XGTACX_site824] | 8.67 ± 0.4
11 | ATTTTATGATATATTTGTACTTAACATTTGGATATA [XGTACX_site5888] | 8.53 ± 0.36
12 | TAGTTTTTTATATATTGTACAAATAATATATTATAT [XGTACX_site2564] | 8.6 ± 0.5
13 | TAAATTCTTTAAAACTTTAAAACAAAAAAAAAAAAA [CACACA_negctrl_site1078] | 8.26 ± 0.41
14 | GTAATTATTAATAAAACATGCGTATAAAATTTTCTC [TGCATGCA_site50] | 8.7 ± 0.37
15 | TCTTTTTTTAATAAAACATGCAATATTATATATGTA [TGCATGCA_site236] | 8.55 ± 0.18
16 | AAAAAAATATATATATATATATATATATATTTATAT [XGTACX_negctrl_site86] | 8.57 ± 0.13
17 | AACAGACGAAGACACACACACATATATATATATATA [CACACA_site1020] | 10.2 ± 0.21
18 | CGTTTTCTATATCATTGTACATATTCATGTGTAAAT [XGTACX_site2741] | 8.57 ± 0.33
19 | TAAAAGTTCACCTGTACACACATATAAATATGTACA [CACACA_site6901] | 8.47 ± 0.33
20 | TTGTTTAAGTCACGAACACACATATATCATCAATTT [CACACA_site986] | 8.47 ± 0.38
21 | AAAATTAACCGTAACACACACACATATAAATATGTA [CACACA_site7791] | 8.48 ± 0.43
22 | ATTAATAAATTCAATTGTACTTGTTTATACATAAAA [XGTACX_site3733] | 8.36 ± 0.23

Row | Sequence | gcPBM binding intensity (ln)
23 | TTATTTTATTTTTGTGCACACTGATAAATTGAAAAG [CACACA_site2949] | 8.93 ± 0.23
24 | ATTTATTTTGTTGTTGTTTTTATTTGATTGTTTTAT [CACACA_negctrl_site1275] | 8.76 ± 0.55
25 | TTATGGTGCAACATTATGCACACCGTTAAATAACTA [CACACA_site3846] | 8.67 ± 0.17
26 | ATTTATGAAAAATGTACACACATCAAATGCTTATAT [CACACA_site4068] | 8.62 ± 0.42
27 | ACAAAATTATGTAGATGTACAGACATAGAAAGAGAT [XGTACX_site3096] | 9.28 ± 0.38
28 | GTTTGAATGGCGCACTGTACACATATATACATATAG [XGTACX_site8619] | 9.12 ± 0.43
29 | TACATATATATATATGTACACACATTAATAAAAAAA [CACACA_site9058] | 8.68 ± 0.3
30 | ATATTTTATTTTAATACACACAAGTTATATAACCAC [CACACA_site6508] | 8.59 ± 0.41
31 | ATAACAAAAAAAAAGGTGCTACAAAATGAATAAAAA [GTGCAC_site9659] | 8.95 ± 0.44
32 | AATATAAATAATTATACACACTTAATATATATATAC [CACACA_site5533] | 8.46 ± 0.54
33 | TAGGTGCCTTTTTTCACACACATGTCAACTAAATAT [CACACA_site2656] | 8.83 ± 0.31
34 | ATATTTAGGAAAAATAGTACACATTTAAATAATAAT [XGTACX_site7989] | 8.63 ± 0.33
35 | CTTTAAATTAATAAAAGTACATTATTTATATATTTT [XGTACX_site4808] | 8.02 ± 0.42
36 | AAATATATATATATATATATAAATATATACATATAT [TGCATGCA_negctrl_site517] | 8.12 ± 0.33
37 | AAAATGTCCCGTAGAAAATAAATTTATTACGCAATA [CACACA_negctrl_site1564] | 8.45 ± 0.49
38 | TATTAATTTAAATGGGTGCAAAACCTATATAAATAT | 8.76 ± 0.13
39 | ATTTATGTTAATAAGTGTACAATAAATTTTTTTTAT [XGTACX_site7658] | 8.21 ± 0.11
40 | AACATATATAAATACACACACATATATATATGAAAT [CACACA_site4312] | 8.65 ± 0.52
41 | ATGTGTATATATATGTGTACATAATTTGTGTTATTC [XGTACX_site2509] | 8.65 ± 0.42
42 | TAATATGTTTATGGTAACATACAAAAATGTATATAT [GTGCAC_negctrl_site204] | 8.21 ± 0.49
43 | TATCCCCTTGTCCATATTAATTGTGACATCATATAT [XGTACX_negctrl_site9] | 8.91 ± 0.45
44 | TATTTTTTATTTTAAATCCTCTGATATTTAATTTGT [TGCATGCA_negctrl_site84] | 8.35 ± 0.35
